Source: PubChem BioAssay AID463173 (ICCB-Longwood Screening Facility, Harvard Medical School, 2010)
Screen size: about 52,000 compounds; about 1,700 (3.3%) were called active. Rule as the data show it: active = survival mostly below about 52% (no sharp cut-off); inactive = mostly above about 56%. Some of the results follow.

Test system: Wild type
Test: S. aureus survival, RN4220 and DeltatarO strains – OD600, teichoic acid synthesis inhibitors, primary screen (AID 463173)
Conditions: S. aureus RN4220 wild type/DeltatarO growth, OD600, 18 h, hits give low values, screened at 18.75 µg/mL (by protocol)

Row | SMILES | survival
1 | COc1ccc(CNC(=O)C2CCN(Cc3nc(-c4ccc(OC)c(OC)c4)oc3C)CC2)cc1 | inactive: 91%
2 | Cc1ccc(N(CC(C)C)S(=O)(=O)c2nnc(NC(=O)c3ccco3)s2)cc1 | inactive: 48%
3 | COc1ccccc1N1CCN(C(=O)c2sc3nc4n(c(=O)c3c2C)CCC4)CC1 | inactive: 79%
4 | CCCCN(CC)CCNC(=O)c1cn(CCOC)c(=O)c2c1c1ccccc1n2C | inactive: 89%
5 | CCC(=O)N1CCc2cc(S(=O)(=O)CCC(=O)Nc3ccc(Cl)c(C(F)(F)F)c3)ccc21 | inactive: 74%
6 | CC(=O)N1C(Nc2ccc(C)cc2)CCN1c1ccccc1 (stereo not given) | inactive: 104%
7 | CCOc1ccc(C(=O)c2cn(Cc3ccccc3OC)c3cc4c(cc3c2=O)OCCO4)cc1 | inactive: 80%
8 | Cc1ccc(NC(=O)Cn2c(=O)oc3ccccc32)cc1Cl | inactive: 55%
9 | COc1ccccc1CN1COc2ccc3c(C)cc(=O)oc3c2C1 | inactive: 92%
10 | O=C(NC1CC(=O)N(c2cccc(F)c2)C1)c1ccc(S(=O)(=O)N2CCOCC2)cc1 (stereo not given) | inactive: 81%
11 | CN(C)c1ccc(C(C(=O)NC2CCCCC2)N(Cc2ccco2)C(=O)Cc2c[nH]c3ccccc23)cc1 (stereo not given) | inactive: 107%
12 | O=S(=O)(NCc1ccco1)c1ccc(Cl)cc1 | inactive: 107%
13 | OC(CN1CCCCC1)CN(c1ccccc1)c1ccccc1 (stereo not given) | inactive: 113%
14 | COc1cc(/C=C(\C#N)C(=O)Nc2ccc(S(N)(=O)=O)cc2)ccc1O | inactive: 105%
15 | CCOC(=O)c1ccc(NC(=O)CSc2ccc(-c3sc(C)nc3C)nn2)cc1 | inactive: 32%
16 | CCOC(=O)c1ccc(NC(=O)c2cn(-c3ccccc3)nc2-c2ccc(Br)cc2)cc1 | inactive: 69%
17 | CCN(CC)C(=O)C(C(F)(F)F)C(F)(F)F | inactive: 103%
18 | Fc1ccccc1CSc1nnc2c(n1)[nH]c1ccccc12 | inactive: 101%
19 | COc1ccc(Cn2ccc3nc(C)c(C(=O)N4CCN(c5ccccc5)CC4)cc3c2=O)cc1 | inactive: 80%
20 | COc1ccc(C(=O)c2oc3ccccc3c2NC(=O)c2ccc(F)cc2)cc1 | inactive: 69%
21 | O=C(c1cn(CCOc2ccccc2F)c2ccccc12)C1CCCCC1 | active: 3%
22 | COCCNc1cn[nH]c(=O)c1Cl | inactive: 90%
23 | C(=N\C(/N=C/c1cccs1)c1cccs1)/c1cccs1 | inactive: 123%

Row | SMILES | survival
24 | CC(=O)NS(=O)(=O)c1ccc(NC(=O)c2ccc(C)c(C)c2)cc1 | inactive: 122%
25 | O=C(CN1CCC(NC(=O)C2CCCCC2)CC1)Nc1cccc(F)c1 | inactive: 111%
26 | COc1ccc(NC(=O)CSc2oc(-c3cccs3)nc2S(=O)(=O)c2ccc(Br)cc2)c(OC)c1 | inactive: 77%
27 | Cc1cccc(Cn2cc(C(=O)c3ccccc3)c(=O)c3cc4c(cc32)OCO4)c1 | inactive: 75%
28 | Cc1ccc(Nc2sc(C(=O)c3ccccc3)c(N)c2C(=O)NC(C)C)cc1 | inactive: 78%
29 | CCc1nonc1NC(=O)c1oc2cc(C)c(Cl)cc2c1C | inactive: 90%
30 | Cc1nc2ccn(Cc3cccs3)c(=O)c2cc1C(=O)NCc1ccccc1 | inactive: 73%
31 | COc1ccc2c(c1)c1c(c(=O)n(-c3ccccc3C)c(=O)n1CC(=O)N1CCCC1)n2C | inactive: 127%
32 | COc1ccc(C2C=C(c3ccccc3)Nc3nc(NC(=O)/C=C/c4ccc(F)cc4)nn32)cc1 (stereo not given) | inactive: 59%
33 | CCOc1ccc(CNC(=O)C2CCN(S(=O)(=O)c3cn(C)cn3)CC2)cc1OC | inactive: 73%
34 | COc1cccc(CN2C(=O)CN(C3CCCCC3)C(=O)C2c2ccc(OC)c(OC)c2)c1 (stereo not given) | inactive: 76%
35 | CCc1nnc(NC(=O)CCC(=O)N2CCC(O)CC2)s1 | inactive: 100%
36 | CCC(C)Sc1c(C(C)C)cnc2c1c(=O)n(C)c(=O)n2C (stereo not given) | inactive: 143%
37 | COc1ccc(-c2cc(C(F)(F)F)c(C#N)c(SCC(=O)Nc3ccccc3F)n2)cc1 | inactive: 85%
38 | O=C(NC1CC1)C1CCCN1S(=O)(=O)c1ccccc1 (stereo not given) | inactive: 113%
39 | COc1cccc(CNc2nccn(-c3ccc(OC)c(OC)c3)c2=O)c1 | inactive: 124%
40 | Cc1nn(C)c2c1c(-c1ccccc1)cc(=O)n2Cc1ccc(Cl)cc1 | inactive: 76%
41 | COc1ccc(-n2c(/C=C/c3c(C)[nH]c4ccccc34)nc3ccccc3c2=O)cc1 | inactive: 145%
42 | CC1=C(C(=O)OC(C)C)C(C)C(C(=O)OC(C)C)=C(C)N1 | inactive: 121%
43 | CCOc1ccc(S(=O)(=O)N2CCC(N3CCN(Cc4ccc(C)cc4)C(=O)C3=O)CC2)cc1 | inactive: 68%
44 | COc1ccccc1C(=O)Nc1ccc(OCc2cc(=O)n3ccc(C)cc3n2)cc1 | inactive: 85%
45 | COCc1cc(C)nc2sc3c(c12)NC(c1ccc(O)cc1)N(c1ccc(C)cc1)C3=O (stereo not given) | inactive: 63%
46 | COc1ccc(C)cc1-n1c(-c2ccc(C)cc2)cc2c1CC(C)(C)CC2=O | inactive: 108%

Row | SMILES | survival
47 | O=C(Cn1c2ncccc2c(=O)n1-c1ccccc1)Nc1ccc(Cl)cc1C(F)(F)F | inactive: 72%
48 | Cc1nn(C(=O)c2ccccc2)c(C)c1S(=O)(=O)N1CCCCCC1 | inactive: 80%
49 | CCN(C(=O)c1cn(-c2ccc(OC)cc2)c(=O)c2ccccc12)c1cccc(Cl)c1 | inactive: 119%
50 | CCn1c(=N)c(C(=O)NC2CCCC2)cc2c(=O)n3ccccc3nc21 | inactive: 71%
51 | O=C(OCc1cccc(C(F)(F)F)c1)c1ccc(-c2nnn(Cc3ccc(F)cc3)n2)cc1 | inactive: 83%
52 | CCOc1ccc(C(=O)OCc2cc(=O)n3cc(C)sc3n2)cc1 | inactive: 57%
53 | O=C(O)CSCCc1ccccn1 | inactive: 116%
54 | Nc1cc(N)nc(Sc2ncnc3ccccc23)n1 | inactive: 96%
55 | CC(C)N1CCc2nc(SCC(=O)Nc3cccc(F)c3)[nH]c(=O)c2C1 | inactive: 83%
56 | COc1ccc(-c2nc3scc(CCNC(=O)c4cc(OC)cc(OC)c4)n3n2)cc1 | inactive: 67%
57 | CCOC(=O)C1CCCN(S(=O)(=O)c2ccc3[nH]c(=O)oc3c2)C1 (stereo not given) | inactive: 88%
58 | COc1ccccc1NC(=O)c1sc2ncn(Cc3ccccc3Cl)c(=O)c2c1C | inactive: 125%
59 | CCc1ccccc1NC(=O)c1sc(-n2nc(C)c(Cc3ccc4c(c3)OCO4)c2C)nc1C | inactive: 117%
60 | CCCCCn1cc2c(c1-c1ccc(Cl)cc1)c(=O)n(C)c(=O)n2C | inactive: 88%
61 | COc1ccc2c(c1)C=C(C(=O)NCc1cc(Br)ccc1OC)CO2 | inactive: 75%
62 | Cc1cccc(C(=O)Nc2ccc3oc(-c4ccncc4)nc3c2)c1 | inactive: 74%
63 | COc1ccc(-c2[nH]c3ccccc3c2SCCNC(=O)c2ccc(S(=O)(=O)N(C)C)cc2)cc1 | inactive: 81%
64 | COc1ccc(S(=O)(=O)NCC(c2ccc(N(C)C)cc2)N2CCOCC2)cc1 (stereo not given) | inactive: 88%
65 | COC(=O)c1cccc(Nc2nn3c(=O)c4cc5c(cc4nc3s2)OCO5)c1 | inactive: 75%
66 | S=c1oc(-c2ccccc2)nn1CNc1ccccc1 | inactive: 92%
67 | COc1ccc(CNC(=O)CSc2ncc(S(=O)(=O)c3ccc(Br)cc3)c(=O)[nH]2)cc1 | inactive: 64%
68 | Cc1ccc2[nH]c3c(=O)n(CC(=O)NC(C)C)ncc3c2c1 | active: 1%
69 | Cc1nn(-c2ccc(N3CCOCC3)nn2)c(C)c1CCC(=O)NCc1ccccc1F | inactive: 94%

Row | SMILES | survival
70 | CCCCOc1ccc(CNC(=O)Cc2ccc(NC(=O)N3CCSc4ncccc43)cc2)cc1 | inactive: 123%
71 | CCNc1oc(-c2ccc(COc3ccc(Cl)cc3)o2)nc1C#N | inactive: 86%
72 | O=C(CSC1=Nc2ccccc2N=C(c2ccc(F)cc2)C1)NCc1ccccc1Cl | inactive: 78%
73 | CCOc1ccc(CNC(=O)c2sc3ncnc(N(C)C4CCCCC4)c3c2C)cc1 | inactive: 88%
74 | NC(=O)c1ccccc1NC(=O)Cn1nc(Cc2cccnc2)c2ccccc2c1=O | inactive: 66%
75 | O=C(O)CC1NC(=S)N(Cc2ccccc2)C1=O (stereo not given) | inactive: 108%
76 | Cc1cc(N(C(=O)Cn2nnc3ccccc32)C(C(=O)NCC2CCCO2)c2ccc(F)cc2)ccc1-n1cnnn1 (stereo not given) | inactive: 104%
77 | Cc1ccc(Cl)cc1NC(=O)CSc1nc2c(c(=O)[nH]1)CN(Cc1ccccc1)CC2 | inactive: 82%
78 | COc1ccc(S(=O)(=O)N2CCN(CC(=O)Nc3ccc(Cl)c(C(F)(F)F)c3)CC2)cc1 | inactive: 73%
79 | O=C(CSc1ncc(CO)n1Cc1ccc(Cl)cc1)NCc1ccc(F)cc1 | active: 14%
80 | COc1ccc(C(=O)Oc2cc(-c3ccc4c(c3)OCO4)cc(=O)c3c(C)oc(C)c23)cc1 | inactive: 117%
81 | Cc1cccc(NC(=O)CSc2nc(=O)n(Cc3ccccn3)c3c2CCC3)c1C | inactive: 94%
82 | COc1ccc(CNC(=O)c2cc3cccc4c3n2CC(C)S4)c(OC)c1 (stereo not given) | inactive: 127%
83 | COC(=O)c1cc2oc(C)cc2n1CC(=O)Nc1cc(Cl)ccc1OC | inactive: 88%
84 | O=C(CC12CC3CC(CC(C3)C1)C2)N1CCCOC1 | inactive: 114%
85 | Cc1ccc(-c2onc(C)c2C)cc1S(=O)(=O)Nc1ccc(Cl)cn1 | inactive: 89%
86 | Cc1ccccc1C(=O)Nc1ccc(C(=O)OCc2cc(=O)n3nc(C(C)C)sc3n2)cc1 | inactive: 65%
87 | O=C1CC(c2ccc3c(c2)OCO3)CC2=C1C(c1ccncc1)Nc1ccccc1N2 (stereo not given) | inactive: 81%
88 | COc1ccc(NC(=O)C2Cc3ccccc3N2C(=O)c2ccccc2)cc1OC (stereo not given) | inactive: 120%
89 | CCCNC(=O)CSc1nc(-c2ccccc2)cc(C(F)(F)F)n1 | inactive: 112%
90 | CCOC(=O)c1ccc(NC(=O)CCc2c(C)nc3c(-c4ccc(F)cc4)c(C)nn3c2C)cc1 | inactive: 88%
